Assay results: PubChem BioAssay AID2451 (National Center for Advancing Translational Sciences (NCATS), 2010)
Where “and” joins values, the source holds several entries; their conditions need not be identical. Equal values may be shown once. The whole screen tested about 290,000 compounds, of which about 2,100 (0.72%) were called active. The shares of active, inactive and inconclusive entries below differ from those in the screen. Calls follow the shape of the dose curve; as a rule, active = well fitted inhibition curve with a large enough effect; inconclusive = small, poorly fitted or top-dose-only effect, or effect the other way; inactive = flat fitted curve, though single readings scatter. Where the call is inconclusive, the potency comes from a doubtful curve fit.
% is scaled to controls: 0 for no effect and ±100 for the full control effect; potency is read from the fitted curve at half-maximal effect; tags tell the direction and shape of the fitted curve.
Also: nearly all actives have a fitted effect of over 55% in size.

What follows are compounds tested against Fructose-bisphosphate aldolase (Giardia intestinalis (strain ATCC 50803 / WB clone C6)) (UniProt A8B2U2) (assay: qHTS Assay for Inhibitors of Fructose-1,6-bisphosphate Aldolase from Giardia Lamblia). Details: purified Giardia FBPA; activity, negative = inhibition: at 59.6 µM (top of the series) unless noted.
UniProt A8B2U2, sequence (A8B2U2 whole entry, looked up): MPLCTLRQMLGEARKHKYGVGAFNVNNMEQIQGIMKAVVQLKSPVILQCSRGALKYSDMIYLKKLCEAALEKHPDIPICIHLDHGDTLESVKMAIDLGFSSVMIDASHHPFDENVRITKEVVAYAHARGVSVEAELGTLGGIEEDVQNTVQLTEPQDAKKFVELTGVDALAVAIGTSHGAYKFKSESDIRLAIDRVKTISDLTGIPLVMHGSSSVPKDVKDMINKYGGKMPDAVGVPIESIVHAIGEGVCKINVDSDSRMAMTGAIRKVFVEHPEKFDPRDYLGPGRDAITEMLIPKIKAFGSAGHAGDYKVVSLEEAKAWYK
In short: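 40 nM FBPA preincubated 10 min at RT with compound (up to 57.5 uM final), then substrate plus GAPDH/TPI/NAD/arsenate coupling and diaphorase/resazurin added. Fluorescence read after 20 min at RT, 525/598 nm.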
For `O=C(Nc1cccc2ccccc12)c1ccc([N+](=O)[O-])s1`, the “activity, negative = inhibition” value was inactive: -1.33%. `CCOc1ccc2nc(N3CCCC(C(=O)N4CCN(CC)CC4)C3)sc2c1` (centres undefined) was tested, and the Potency was inconclusive: 22.3 µM [inhibitor, partial curve]. `COc1ccc2c(c1)CCC1C2=NN(/C(C)=C\C(C)=O)C1c1ccc(F)cc1` (centres undefined) was tested, and the Potency was inconclusive: 22.3 µM [inhibitor, partial curve]. With `Cc1cc(C)c(C(=O)/C=C/c2cccc3ccccc23)c(=O)[nH]1` the “activity, negative = inhibition” value was inactive: -3.42%. In the case of `CCOC(=O)c1c(NC(=O)CSc2nc3ccccc3c(=O)n2-c2ccc(F)cc2)sc(C(C)=O)c1C`, the “activity, negative = inhibition” value is reported as inactive: 1.47%. In the case of `Cc1ccc(C)n1-c1ccc(C(=O)Nc2ccccc2F)cc1`, the “activity, negative = inhibition” value is reported as inactive: 0.784%. For `Cc1cc(C(=O)CSc2nnc(-c3cccs3)o2)c(C)n1-c1ccccc1`, the Potency was inconclusive: 28.2 µM [inhibitor, partial curve]. For `C=Cc1c(C)/c2[n-]/c1=C\c1[n-]c(c(CC)c1C)/C=c1\[n-]c3c(c1C)C(=O)C(C(=O)[O-])C=3c1[n-]c(c(C)c1CCC(=O)[O-])\C=2.[Cu].[Na+].[Na+]` (centres undefined), the Potency was active: 14.1 µM. With `O=C(Nc1cccc(-c2nc3ccccc3o2)c1)c1ccc(N2C(=O)C3C4C=CC(C4)C3C2=O)cc1` (centres undefined) the “activity, negative = inhibition” value was inactive: 12.3%. In the case of `Cc1nc2ccccn2c1C(=O)NNS(=O)(=O)c1ccc(C(C)(C)C)cc1`, the “activity, negative = inhibition” value is reported as inactive: -4.17%. In the case of `COC(=O)C(C(=O)OC)=C(/C=C/C=C/N(C)C)N(C)C`, the Potency is reported as inconclusive: 15.8 µM [inhibitor, single point]. With `CCc1cc(=O)[nH]c(SC/C=C/c2ccccc2)n1` the Potency was inconclusive: 28.2 µM [inhibitor, partial curve]. `COC(=O)c1ccc(NC(=O)CC2C(=O)N(c3ccc(C)cc3)C(=O)N2CC(C)C)cc1` (centres undefined) was tested, and the “activity, negative = inhibition” value was inactive: -1.07%. In the case of `N#CC1(c2ccc(NC(=O)c3ccccc3)cc2)CCCC1`, the “activity, negative = inhibition” value is reported as inactive: -14.9%. For `Cc1[nH]c2ccccc2c1C(C#N)(C#N)C1C(=O)c2ccccc2C1=O`, the Potency was active: 9.98 µM. In the case of `COc1ccc(OC)c(NC(=O)C2CCCC2)c1`, the Potency is reported as inconclusive: 35.4 µM [activator, single point]. With `COc1ccc(N2CCN(c3nc(-c4cccs4)nc4ccccc34)CC2)cc1` the “activity, negative = inhibition” value was inactive: -5.43%. For `CCc1cc(=O)oc2c(C)c(OCC(=O)N3CC[C@@]4(O)CCCC[C@H]4C3)ccc12`, the Potency was inconclusive: 39.8 µM [activator, single point]. `CCc1nc(N2CCCC2)c(C#N)c2c1CCCC2` was tested, and the “activity, negative = inhibition” value was inactive: -1.4%. `CN1CCCN(Cc2cccc3ccccc23)CC1` was tested, and the Potency was inconclusive: 15.8 µM [inhibitor, partial curve]. With `Cc1ccc(O)c(-c2cc(C(=O)NCc3ccc4c(c3)OCO4)[nH]n2)c1` the “activity, negative = inhibition” value was inactive: 1.01%. For `CCOc1ccc(C2NC(=O)C(C#N)=C(S)N2c2cccc(C)c2)cc1OC` (centres undefined), the Potency was inconclusive: 12.6 µM [inhibitor, partial curve]. With `COc1ccc2c(c1)C1=NN(/C(C)=C/C(C)=O)C(c3cccc(F)c3)C1CC2` (centres undefined) the Potency was inconclusive: 15.8 µM [inhibitor, single point]. `CCOC(=O)CN=C1CC(C)(C)CC2=C1Sc1ncnc(N(C)C)c1N2` was tested, and the Potency was active: 2.51 µM. `COC(=O)c1c(-c2ccncc2)csc1NC(=O)c1ccoc1C` was tested, and the “activity, negative = inhibition” value was inactive: 1.34%. In the case of `Cc1ccc(C2C3CN(C(C)C)CC=C3C(C#N)=C(N)C2(C#N)C#N)cc1` (centres undefined), the Potency is reported as inconclusive: 11.2 µM [inhibitor, partial curve]. `CCOc1ccc(/C=N/NC(=O)CN2CCCCCCC2)cc1` was tested, and the Potency was inconclusive: 19.9 µM [inhibitor, partial curve]. For `O=C(Nc1ccc(S(=O)(=O)N2CCCCC2)cc1)C1CCCCC1`, the “activity, negative = inhibition” value was inactive: 9.98%. `COCc1cc(CN(C)C(=O)c2oc3c(F)cccc3c2C)[nH]n1` was tested, and the “activity, negative = inhibition” value was inactive: -5.42%. For `NS(=O)(=O)c1ccc(N/N=C/c2ccc(O)c(O)c2O)c([N+](=O)[O-])c1`, the Potency was active: 7.92 µM. With `CCN(CC)c1ccc(NC(=O)Nc2ccccc2C(F)(F)F)cc1` the Potency was inconclusive: 6.29 µM [inhibitor, partial curve]. `Cn1c(-c2ccccc2)cnc1NCc1cc(Cl)ccc1O` was tested, and the Potency was inconclusive: 31.6 µM [inhibitor, partial curve]. `COc1cc2c(cc1OC)C1O[C@](CCCCN3C(=O)c4ccccc4C3=O)(C2)OC2=C1C(=O)CC(C)(C)C2` was tested, and the Potency was inconclusive: 3.16 µM [inhibitor, partial curve]. With `O=C(Cn1nnc(-c2cccs2)n1)Nc1ccccc1C(F)(F)F` the “activity, negative = inhibition” value was inactive: 8.83%. `Cc1nnc(N/N=C/c2ccc(-c3ccccc3F)o2)n1N` was tested, and the Potency was active: 15.8 µM. For `COc1ccc(CNC(=O)Cn2cnc3c(=O)n(C)c(=O)n(C)c32)cc1`, the “activity, negative = inhibition” value was inactive: -2.22%. In the case of `CC1(OC(=O)C2CCCC2)C(=O)C=C2C=C(c3ccsc3)N(Cc3ccc4c(c3)OCO4)C=C2C1=O` (centres undefined), the Potency is reported as inconclusive: 354 nM [inhibitor, full curve] and inconclusive: 889 nM [inhibitor, full curve]. With `CCOC(=O)C1CCCN(Cc2ccc(OCc3ccccc3)cc2)C1` (centres undefined) the Potency was active: 28.2 µM. `Nn1cnnc1SCC(=O)Nc1ccc2c(c1)OCCO2` was tested, and the “activity, negative = inhibition” value was inactive: -1.53%. `Cc1[nH]n(-c2ccccc2)c(=O)c1/C=N/Nc1nncc(-c2ccccc2)n1` was tested, and the Potency was active: 7.92 µM. For `COc1ccc(NC(=O)C2CCCN(c3nccc(C)n3)C2)cc1` (centres undefined), the “activity, negative = inhibition” value was inactive: -4.71%. With `CC(C)[C@H](CO)Nc1nc(NCc2ccc(S(N)(=O)=O)cc2)c2ncn(C(C)C)c2n1` the “activity, negative = inhibition” value was inactive: -27.5%. `COC(=O)c1ccc(CSc2nc3ccc(S(N)(=O)=O)cc3[nH]2)cc1` was tested, and the Potency was inconclusive: 22.4 µM [inhibitor, partial curve]. In the case of `CCCCOc1ccc(NC(=O)c2cnc(C)cn2)cc1`, the “activity, negative = inhibition” value is reported as inactive: -0.373%. For `Cc1cc(C)c2nc(NC(=O)c3cc(C)on3)sc2c1`, the “activity, negative = inhibition” value was inactive: 2.19%. For `CC1CCN(CCOc2ccccc2-c2ccccc2)CC1`, the Potency was inconclusive: 15.8 µM [inhibitor, single point]. For `Cc1ccc(/C=C/C(=O)Nc2ncc(C)s2)o1`, the Potency was inconclusive: 9.98 µM [inhibitor, partial curve]. `O=C(CCCOc1ccc(Cl)cc1Cl)N/N=C/c1ccccc1` was tested, and the Potency was inconclusive: 15.8 µM [inhibitor, partial curve]. For `Cc1cc2nc(-c3ccc(SCc4ccc(C(=O)O)cc4)nc3)[nH]c2cc1C`, the Potency was inconclusive: 15.8 µM [inhibitor, single point]. With `O=C(OCCCN1CCOCC1)c1ccc(O)c(O)c1` the Potency was inconclusive: 15.8 µM [inhibitor, partial curve]. In the case of `COc1ccc(CCNC(=O)/C(C#N)=C/c2ccc(OCC(=O)NCC3CCCO3)cc2)cc1OC` (centres undefined), the “activity, negative = inhibition” value is reported as inactive: -2.94%. With `CCNC(=O)CC1C(=O)N(CC)C(=S)N1NC(=O)c1cccnc1` (centres undefined) the Potency was inconclusive: 15.8 µM [inhibitor, partial curve]. For `Cc1ccc(C2CC(=O)Oc3cc4c(cc32)OCO4)cc1` (centres undefined), the Potency was active: 50 µM. For `CCN1CCN(CCC(=O)Nc2cc(OC)ccc2OC)CC1`, the Potency was inconclusive: 14.1 µM [inhibitor, partial curve]. For `CCN1CCN(CC2COc3ccccc3O2)CC1` (centres undefined), the Potency was inconclusive: 22.4 µM [inhibitor, single point]. `Cc1c(N(C(=O)CNC(=O)c2ccccc2)C2(C(=O)NC3CCCC3)CCCCC2)c(=O)n(-c2ccccc2)n1C` was tested, and the “activity, negative = inhibition” value was inactive: 3.76%. For `CCCNC(=O)[C@H]1N2C(=O)c3c(ccc(OC)c3OC)C2SC1(C)C` (some centres undefined), the Potency was inconclusive: 22.4 µM [inhibitor, partial curve]. In the case of `COC(=O)CCC(=O)OC1(C)C(=O)C=C2C=C(C3CC3)N(CCCCO)C=C2C1=O` (centres undefined), the Potency is reported as inconclusive: 100 nM [inhibitor, full curve] and inconclusive: 500 nM [inhibitor, full curve]. `COc1ccc(NC(=O)c2ccc3c(=O)n(CC4CCCO4)c(=S)[nH]c3c2)c(OC)c1` (centres undefined) was tested, and the “activity, negative = inhibition” value was inactive: 2.79%. `Cc1ccc(CNc2ccc(O)cc2)cc1` was tested, and the Potency was active: 3.54 µM. `CN1CC=C2C(C#N)=C(N)C(C#N)(C#N)C(c3ccncc3)C2C1` (centres undefined) was tested, and the Potency was inconclusive: 19.9 µM [inhibitor, partial curve]. With `N#Cc1cc2c(nc1SCC(=O)O)CCCCC2` the Potency was inconclusive: 15.8 µM [activator, single point]. With `CCOC(=O)c1[nH]c2ccc(OC)cc2c1NC(=O)OC` the Potency was inconclusive: 19.9 µM [inhibitor, partial curve]. In the case of `CC(=O)Oc1cc2c(C(=O)NCCCN3CCOCC3)c(C)oc2c2ccccc12`, the Potency is reported as inconclusive: 0.354 µM [inhibitor, full curve]. For `CC(C)OC(=O)CSc1nc(N)c(C#N)c(-c2ccco2)c1C#N`, the Potency was inconclusive: 7.92 µM [inhibitor, partial curve]. With `NS(=O)(=O)c1ccc2c(c1)C(=NO)c1cc(S(N)(=O)=O)ccc1-2` the “activity, negative = inhibition” value was inactive: -1.17%. `CN1C(=O)/C(=C/c2ccc(-c3ccccc3[N+](=O)[O-])o2)SC1=Nc1ccc(Cl)c(C(=O)O)c1` was tested, and the Potency was inconclusive: 3.54 µM [inhibitor, full curve]. `CCCCC1C(=O)N(c2ccccc2)N(c2ccccc2)C1=O` was tested, and the Potency was “inactive”. For `NC1=CC(=O)c2cccc3cccc1c23`, the Potency was active: 19.9 µM. In the case of `O=c1[nH]nc(CNc2ccc(O)cc2)c2ccccc12`, the Potency is reported as active: 17.7 µM. For `Cc1ccc2nsnc2c1NC(=S)NC(=O)c1ccco1`, the Potency was inconclusive: 17.7 µM [inhibitor, partial curve]. For `O=C(CN1C(=O)COc2ccccc21)NCCN1CCc2ccccc2C1`, the Potency was inconclusive: 28.1 µM [inhibitor, single point]. With `O=c1c2[nH]cnc2n(-c2cccc(F)c2)c(=O)n1Cc1ccccc1` the Potency was inconclusive: 10 µM [inhibitor, partial curve]. `O=C(c1cccc2cccc(O)c12)N1CCCCC1` was tested, and the Potency was inconclusive: 17.7 µM [inhibitor, partial curve].
